# In publication PMC4336329 (PLoS ONE, 2015):
# The campaign covered roughly 310,000 compounds. About 14,000 (4.5%) showed an effect of 50% or more. Effects have a minus sign here. The list shows a part of the results.
# Biological target: human ether-à-go-go-related gene (hERG) potassium channel (human, UniProt Q12809)
# Experiment: primary screen, population patch clamp on CHO cells stably expressing hERG
# 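Further: peak tail current of the secondary pulse compared with the same well before compound.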
# human ether-à-go-go-related gene (hERG) potassium channel, sequence (Q12809 whole entry, looked up): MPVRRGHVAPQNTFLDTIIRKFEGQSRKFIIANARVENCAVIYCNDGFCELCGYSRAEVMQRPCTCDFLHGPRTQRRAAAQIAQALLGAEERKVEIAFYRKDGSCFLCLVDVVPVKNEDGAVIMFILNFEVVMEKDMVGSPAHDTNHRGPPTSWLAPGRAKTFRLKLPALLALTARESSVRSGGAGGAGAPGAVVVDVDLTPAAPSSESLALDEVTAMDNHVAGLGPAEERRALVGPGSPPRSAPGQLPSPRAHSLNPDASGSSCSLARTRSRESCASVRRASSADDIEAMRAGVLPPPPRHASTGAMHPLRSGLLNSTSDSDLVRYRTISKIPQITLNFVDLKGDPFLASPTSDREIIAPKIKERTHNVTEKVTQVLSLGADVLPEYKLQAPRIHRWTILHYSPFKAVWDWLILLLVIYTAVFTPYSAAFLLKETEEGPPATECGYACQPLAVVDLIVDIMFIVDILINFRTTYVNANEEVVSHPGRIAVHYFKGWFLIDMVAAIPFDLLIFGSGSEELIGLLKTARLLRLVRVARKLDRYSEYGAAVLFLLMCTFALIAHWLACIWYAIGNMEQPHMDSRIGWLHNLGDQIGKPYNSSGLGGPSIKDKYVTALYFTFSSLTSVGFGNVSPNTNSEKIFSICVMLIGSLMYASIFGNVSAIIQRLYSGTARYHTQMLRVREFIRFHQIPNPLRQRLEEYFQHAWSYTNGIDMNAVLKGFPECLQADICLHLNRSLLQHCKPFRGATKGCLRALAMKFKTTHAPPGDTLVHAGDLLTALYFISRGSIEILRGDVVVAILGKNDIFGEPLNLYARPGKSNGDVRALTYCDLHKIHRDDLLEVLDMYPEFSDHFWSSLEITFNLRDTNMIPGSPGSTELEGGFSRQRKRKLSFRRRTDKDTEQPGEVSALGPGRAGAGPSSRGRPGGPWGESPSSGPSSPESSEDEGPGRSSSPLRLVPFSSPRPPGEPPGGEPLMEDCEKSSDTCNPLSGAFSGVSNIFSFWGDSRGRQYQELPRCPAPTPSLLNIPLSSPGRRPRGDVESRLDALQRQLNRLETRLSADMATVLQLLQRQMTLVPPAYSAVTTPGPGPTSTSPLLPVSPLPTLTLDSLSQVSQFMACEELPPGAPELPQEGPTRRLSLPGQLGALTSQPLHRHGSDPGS
row,SMILES,"hERG current change (%, negative = inhibition) at 10uM"
1,Cc1nc(-c2ccc(C(=O)Nc3ccc(F)cc3)cc2)cs1,-3.65%
2,O=C(NCc1cccnc1)C(=O)NCC1OCCN1S(=O)(=O)c1ccc(Cl)cc1 (stereo not shown),-11.2%
3,C=CCc1cc(C)ccc1OCCn1ccnc1.O=C(O)C(=O)O,8.08%
4,Cc1cc(NC(=O)C(C)SCC(=O)N(C)CC(=O)Nc2ccc(F)cc2)no1 (stereo not shown),7.59%
5,COc1ccc(-c2noc(CSc3ccc(C)cc3)n2)cc1,4.15%
6,COCc1cc(=O)n2[nH]c(C)nc2n1,7.23%
7,COc1ccc(CCC(=O)OCC(=O)Nc2ccccc2OC(F)F)cc1OC,5.94%
8,O=C(Nc1ccc(OC(F)(F)F)cc1)Oc1ccccc1N1CCOCC1,7.23%
9,CC(=O)Nc1ccc(S(=O)(=O)N2CCN(S(=O)(=O)c3ccc(F)c(F)c3F)CC2)cc1,11.7%
10,O=C(O)c1cc([N+](=O)[O-])ccc1NCc1ccccc1Cl,22.8%
11,CC1CN(C2CCN(C(=O)COc3ccc(Cl)cc3)CC2)CC(C)O1.O=C(O)C(=O)O (stereo not shown),-38%
12,CC(=O)c1cn(CC(=O)Nc2ccc(C)cc2C)c2ccccc12,1.76%
13,Cn1c(NCC(O)c2ccccc2)nc2c1c(=O)n(Cc1ccc(Cl)c(Cl)c1)c(=O)n2C (stereo not shown),-6.39%
14,Cn1c(SCC(=O)NNC(=O)c2ccccc2)nnc1C(F)(F)F,13.3%
15,O=C(Nc1ccc(F)cc1)C1CCC(N2C(=O)c3ccccc3C2=O)CC1 (stereo not shown),9.03%
16,CN(O)C(=O)Nc1ccc([N+](=O)[O-])cc1,10.4%
17,C=CCn1c(O)c(/C(C)=N/N2CCCCCC2)c(=O)[nH]c1=O,-3.3%
18,Cc1ccc(C)c(Nc2nc(-c3ccncc3)nc3ccccc23)c1,3.25%
19,C1=C(c2c[nH]c3ccccc23)CCNC1,7.59%
20,C=CCNc1nc(-c2cccc(OC)c2O)nc2ccccc12,14.5%
21,Cc1ccc(C)c(N(C)C(=O)COc2cc(=O)n(C)c3ccccc23)c1,-15%
22,COc1ccc(C(O)P(=O)(OC(C)C)c2ccc(N(C)C)cc2)c(OC)c1 (stereo not shown),8.29%
23,CC(C)Cc1cc(C(=O)O)n[nH]1,6.79%
24,COc1cc(C2/C(=C(/O)c3ccccc3)C(=O)C(=O)N2c2ccccn2)ccc1O (stereo not shown),25.1%
25,Cc1ccc(/C=N/c2sc3c(c2C#N)CCCCC3)o1,5.92%
